Values after ≈ are worked out from the molar mass of the structure shown. Where two headings read alike, the source gives them in different places.
Experiments:
[1] = tested on: Treponema hyodysenteriae DJ70 P-3; conditions: for Lesion: mice with lesion/mice; for Curative ratios: Table 2
M. pneumoniae KB-173 = test: microbe, parasite or virus in culture; conditions: Mycoplasmoides pneumoniae, KB173; Medium D; read-out: MIC
Excerpt: (§1) For reference, the minimum growth inhibition concentrations (MIC) to various bacteria of above five drugs and Lankacidin C are shown in Table 3.

Aspergillus niger KF-105 = test: microbe, parasite or virus in culture; conditions: Aspergillus niger, KF105; Medium E; read-out: MIC
Excerpt: as §1

S. aureus KB 283 (MRSA) = test: microbe, parasite or virus in culture; conditions: Staphylococcus aureus, MRSA
Excerpt: as §1

[2] = tested on: Bacillus subtilis KB 211 (ATCC 6633); test: microbe, parasite or virus in culture; conditions: Bacillus subtilis, ATCC6633; Medium A; read-out: MIC
Excerpt: as §1

[3] = tested on: B. cereus KB 143 (IFO 3001); test: microbe, parasite or virus in culture; conditions: Bacillus cereus, IFO3001; Medium A; read-out: MIC
Excerpt: as §1

[4] = tested on: M. gallisepticum KB 172 (333-P); test: microbe, parasite or virus in culture; conditions: Mycoplasmoides gallisepticum; Medium D; read-out: MIC
Excerpt: as §1

[5] = tested on: E. coli KB 198 (ML^r,LCM^s); test: microbe, parasite or virus in culture; conditions: Escherichia coli
Excerpt: as §1

[6] = tested on: Escherichia coli KB 213 (NIHJ); test: microbe, parasite or virus in culture; conditions: Escherichia coli; Medium A; read-out: MIC
Excerpt: as §1

[7] = tested on: S. cerevisiae KF 237 (ATCC 9763); test: microbe, parasite or virus in culture; conditions: Saccharomyces cerevisiae, ATCC9763; Medium E; read-out: MIC
Excerpt: as §1

[8] = tested on: Micrococcus luteus KB 212 (ATCC 9341); test: microbe, parasite or virus in culture; conditions: Micrococcus luteus, ATCC9341; Medium A; read-out: MIC
Excerpt: as §1

[9] = tested on: Penicillium herquei KE 227 (IFO 4647); test: microbe, parasite or virus in culture; conditions: Penicillium herquei, IFO4647; Medium E; read-out: MIC
Excerpt: as §1

[10] = tested on: pasteurella hemolytica KB 281; test: microbe, parasite or virus in culture; conditions: Pasteurella, KB281; Medium C; read-out: MIC
Excerpt: as §1

[11] = tested on: Treponema hyodysenteriae B 78; test: microbe, parasite or virus in culture; conditions: Brachyspira hyodysenteriae, B78; Medium F; read-out: MIC
Excerpt: as §1

[12] = tested on: Mycobacterium smegmatis KB 42 (ATCC 607); test: microbe, parasite or virus in culture; conditions: Mycolicibacterium smegmatis, ATCC607; Medium A; read-out: MIC
Excerpt: as §1

[13] = tested on: Fusobacterium varium KB 234 (ATCC 8501); test: microbe, parasite or virus in culture; conditions: Fusobacterium varium, ATCC8501; Medium B; read-out: MIC
Excerpt: as §1

[14] = tested on: Klebsiella pneumoniae KB 214 (IFO 10031); test: microbe, parasite or virus in culture; conditions: Klebsiella pneumoniae, IFO10031; Medium A; read-out: MIC
Excerpt: as §1

[15] = tested on: S. aureus KB 199 (ML^r,TC^r); test: microbe, parasite or virus in culture; conditions: Staphylococcus aureus
Excerpt: as §1

[16] = tested on: Treponema hyodysenteriae DJ 70 P-3; test: microbe, parasite or virus in culture; conditions: Brachyspira hyodysenteriae, DJ70P3; Medium F; read-out: MIC
Excerpt: as §1

[17] = tested on: Haemophilus pleuropneumoniae KB 282; test: microbe, parasite or virus in culture; conditions: Actinobacillus pleuropneumoniae, KB282; Medium C; read-out: MIC
Excerpt: as §1

[18] = tested on: Acholeplasma laidlawii KB 174 (PG-8); test: microbe, parasite or virus in culture; conditions: Acholeplasma laidlawii; Medium D; read-out: MIC
Excerpt: as §1

[19] = tested on: B. megaterium KB 144 (IFO 12108); test: microbe, parasite or virus in culture; conditions: Priestia megaterium, IFO12108; Medium A; read-out: MIC
Excerpt: as §1

[20] = tested on: S. aureus KB 34 (FDA 209p); test: microbe, parasite or virus in culture; conditions: Staphylococcus aureus, FDA209P; Medium A; read-out: MIC
Excerpt: as §1

S. aureus KB 285 (MRSA) = test: microbe, parasite or virus in culture; conditions: Staphylococcus aureus, MRSA
Excerpt: as §1

[21] = tested on: C. difficile KB 258 (ATCC 9689); test: microbe, parasite or virus in culture; conditions: Clostridioides difficile, ATCC9689; Medium B; read-out: MIC
Excerpt: as §1

[22] = tested on: Proteus vulgaris KB 127 (IFO 3167); test: microbe, parasite or virus in culture; conditions: Proteus vulgaris, IFO3167; Medium A; read-out: MIC
Excerpt: as §1

Saccharomyces sake KF 26 = test: microbe, parasite or virus in culture; conditions: Saccharomyces, KF26; Medium E; read-out: MIC
Excerpt: as §1

[23] = tested on: Pseudomonas aeruginosa KB 115 (IFO 3080); test: microbe, parasite or virus in culture; conditions: Pseudomonas aeruginosa, IFO3080; Medium A; read-out: MIC
Excerpt: as §1

[24] = tested on: Mycoplasma gallisepticum KB 170 (KP-13); test: microbe, parasite or virus in culture; conditions: Mycoplasmoides gallisepticum; Medium D; read-out: MIC
Excerpt: as §1

[25] = tested on: Trichophyton interdigitale KF 62; test: microbe, parasite or virus in culture; conditions: Trichophyton interdigitale, KF62; Medium E; read-out: MIC
Excerpt: as §1

[26] = tested on: M. gallisepticum KB 171 (S-6); test: microbe, parasite or virus in culture; conditions: Mycoplasmoides gallisepticum; Medium D; read-out: MIC
Excerpt: as §1

[27] = tested on: Mucor racemosus KF 223 (IFO 4581); test: microbe, parasite or virus in culture; conditions: Mucor racemosus, IFO4581; Medium E; read-out: MIC
Excerpt: as §1

[28] = tested on: Staphylococcus aureus KB 210 (ATCC 6538p); test: microbe, parasite or virus in culture; conditions: Staphylococcus aureus, ATCC6538P; Medium A; read-out: MIC
Excerpt: as §1

Candida albicans KF-1 = test: microbe, parasite or virus in culture; conditions: Candida albicans, KF1; Medium E; read-out: MIC
Excerpt: as §1

[29] = tested on: A. laidlawii KB 175 (Bm-1); test: microbe, parasite or virus in culture; conditions: Acholeplasma laidlawii; Medium D; read-out: MIC
Excerpt: as §1

[30] = Dosage 7.5 μg/mℓ in drinking water
[31] = Dosage 15 μg/mℓ in drinking water
[32] = Dosage 30 μg/mℓ in drinking water
[33] = Dosage 60 μg/mℓ in drinking water

`C=C[C@]1(C)C[C@@H](OC(=O)CSCCN(CC)CC)[C@]2(C)[C@H](C)CC[C@]3(CCC(=O)[C@H]32)[C@@H](C)[C@@H]1O` [Dynamutilin, tiamulin] was tested, and the “Noninfective (%)” value [1, 30] was 0%, the “Presence of T. hyo. 1st day” value [1, 30] was 5/5 and the “Presence of T. hyo. 3rd day” value [1, 30] was 5/5. For the same compound, the Lesion [1, 30] was 3/5, the “Noninfective (%)” value [1, 31] was 20% and the “Presence of T. hyo. 1st day” value [1, 31] was 0/5. For the same compound, the “Presence of T. hyo. 3rd day” value [1, 31] was 4/5, the Lesion [1, 31] was 0/5 and the “Noninfective (%)” value [1, 32] was 40%. For the same compound, the “Presence of T. hyo. 1st day” value [1, 32] was 0/5, the “Presence of T. hyo. 3rd day” value [1, 32] was 3/5 and the Lesion [1, 32] was 0/5. For the same compound, the “Noninfective (%)” value [1, 33] was 100%, the “Presence of T. hyo. 1st day” value [1, 33] was 0/5 and the “Presence of T. hyo. 3rd day” value [1, 33] was 0/5. For the same compound, the Lesion [1, 33] was 0/5, the ED50 ([1]; Table 1, CF-1 mice, administration through drinking water) was 40 µg/mL (≈ 81 µM) and the Curative ratios ([1]; Dosage 7.5 μg/mℓ) was 0%. The Curative ratios ([1]; Dosage 15 μg/mℓ) was 20%, the Curative ratios ([1]; Dosage 30 μg/mℓ) was 40% and the Curative ratios ([1]; Dosage 60 μg/mℓ) was 100%. The “Fifty-percent effective dosages (ED50)” value ([1]; list after b26, CF-1 mice, administration through drinking water) was 40 µg/mL, the MIC (M. pneumoniae KB-173) was < 0.05 µg/mL and the MIC (Aspergillus niger KF-105) was > 100 µg/mL. The MIC (S. aureus KB 283 (MRSA)) was 3.12 µg/mL (≈ 6.32 µM), the MIC [2] was > 100 µg/mL and the MIC [3] was > 100 µg/mL. The MIC [4] was < 0.05 µg/mL, the MIC [5] was 6.25 µg/mL (≈ 12.7 µM) and the MIC [6] was > 100 µg/mL. The MIC [7] was > 100 µg/mL, the MIC [8] was 0.78 µg/mL (≈ 1.58 µM) and the MIC [9] was > 100 µg/mL. The MIC [10] was > 50 µg/mL, the MIC [11] was 0.2 µg/mL (≈ 0.405 µM) and the MIC [12] was > 100 µg/mL. For the same compound, the MIC [13] was > 100 µg/mL, the MIC [14] was 100 µg/mL (≈ 203 µM) and the MIC [15] was 3.12 µg/mL (≈ 6.32 µM). The MIC [16] was 0.2 µg/mL (≈ 0.405 µM), the MIC [17] was 50 µg/mL (≈ 101 µM) and the MIC [18] was < 0.05 µg/mL. It also gave an MIC [19] of 100 µg/mL (≈ 203 µM), an MIC [20] of 3.12 µg/mL (≈ 6.32 µM) and an MIC (S. aureus KB 285 (MRSA)) of 3.12 µg/mL (≈ 6.32 µM). For the same compound, the MIC [21] was 12.5 µg/mL (≈ 25.3 µM), the MIC [22] was > 100 µg/mL and the MIC (Saccharomyces sake KF 26) was > 100 µg/mL. The MIC [23] was > 100 µg/mL, the MIC [24] was < 0.05 µg/mL and the MIC [25] was > 100 µg/mL. For the same compound, the MIC [26] was < 0.05 µg/mL, the MIC [27] was > 100 µg/mL and the MIC [28] was 0.78 µg/mL (≈ 1.58 µM). For the same compound, the MIC (Candida albicans KF-1) was > 100 µg/mL and the MIC [29] was < 0.05 µg/mL.
